Measured values from PubChem BioAssay AID504333 (National Center for Advancing Translational Sciences (NCATS), 2011).
“And” between values parts separate entries of the source, which are not always exact repeats. Equal entries are not always repeated. Screen size: about 360,000 compounds; about 16,000 (4.4%) were called active. The inconclusive results got no clear call from the source; some entries with a clear call stand among them for comparison. The call rests on the fitted dose curve; in most records, active means well fitted inhibition curve with a large enough effect; inconclusive means small, poorly fitted or top-dose-only effect; inactive means no such curve, though single readings can be large or run the other way. Potencies beside an inconclusive call are fits to weak or partial responses and may not hold up.

Each molecule was assayed against Bromodomain adjacent to zinc finger domain protein 2B (Homo sapiens) (UniProt Q9UIF8) (assay: qHTS Assay for Inhibitors of BAZ2B). Settings: AlphaScreen BAZ2B-H3K14Ac peptide displacement; activity change, negative = inhibition: at 114 µM (top of the series).
Summary of the method: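 Inhibition is scored as reduced AlphaScreen emission. The BAZ2B/b-H3(5-23)K14Ac complex (50 nM each) in PBS pH 7.4, 0.01% Tween-20 meets compound (up to 110 uM) for 30 min at RT before bead addition.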
Further: nearly all actives have a fitted effect of over 60% in size.
On the % scale 0 is the no-effect control and ±100 the full control effect; potency means the concentration at half of the fitted maximal effect; tags describe the fitted curve by direction and shape.

Chain of UniProt Q9UIF8 (Q9UIF8 whole entry, looked up, the tested form may be a part): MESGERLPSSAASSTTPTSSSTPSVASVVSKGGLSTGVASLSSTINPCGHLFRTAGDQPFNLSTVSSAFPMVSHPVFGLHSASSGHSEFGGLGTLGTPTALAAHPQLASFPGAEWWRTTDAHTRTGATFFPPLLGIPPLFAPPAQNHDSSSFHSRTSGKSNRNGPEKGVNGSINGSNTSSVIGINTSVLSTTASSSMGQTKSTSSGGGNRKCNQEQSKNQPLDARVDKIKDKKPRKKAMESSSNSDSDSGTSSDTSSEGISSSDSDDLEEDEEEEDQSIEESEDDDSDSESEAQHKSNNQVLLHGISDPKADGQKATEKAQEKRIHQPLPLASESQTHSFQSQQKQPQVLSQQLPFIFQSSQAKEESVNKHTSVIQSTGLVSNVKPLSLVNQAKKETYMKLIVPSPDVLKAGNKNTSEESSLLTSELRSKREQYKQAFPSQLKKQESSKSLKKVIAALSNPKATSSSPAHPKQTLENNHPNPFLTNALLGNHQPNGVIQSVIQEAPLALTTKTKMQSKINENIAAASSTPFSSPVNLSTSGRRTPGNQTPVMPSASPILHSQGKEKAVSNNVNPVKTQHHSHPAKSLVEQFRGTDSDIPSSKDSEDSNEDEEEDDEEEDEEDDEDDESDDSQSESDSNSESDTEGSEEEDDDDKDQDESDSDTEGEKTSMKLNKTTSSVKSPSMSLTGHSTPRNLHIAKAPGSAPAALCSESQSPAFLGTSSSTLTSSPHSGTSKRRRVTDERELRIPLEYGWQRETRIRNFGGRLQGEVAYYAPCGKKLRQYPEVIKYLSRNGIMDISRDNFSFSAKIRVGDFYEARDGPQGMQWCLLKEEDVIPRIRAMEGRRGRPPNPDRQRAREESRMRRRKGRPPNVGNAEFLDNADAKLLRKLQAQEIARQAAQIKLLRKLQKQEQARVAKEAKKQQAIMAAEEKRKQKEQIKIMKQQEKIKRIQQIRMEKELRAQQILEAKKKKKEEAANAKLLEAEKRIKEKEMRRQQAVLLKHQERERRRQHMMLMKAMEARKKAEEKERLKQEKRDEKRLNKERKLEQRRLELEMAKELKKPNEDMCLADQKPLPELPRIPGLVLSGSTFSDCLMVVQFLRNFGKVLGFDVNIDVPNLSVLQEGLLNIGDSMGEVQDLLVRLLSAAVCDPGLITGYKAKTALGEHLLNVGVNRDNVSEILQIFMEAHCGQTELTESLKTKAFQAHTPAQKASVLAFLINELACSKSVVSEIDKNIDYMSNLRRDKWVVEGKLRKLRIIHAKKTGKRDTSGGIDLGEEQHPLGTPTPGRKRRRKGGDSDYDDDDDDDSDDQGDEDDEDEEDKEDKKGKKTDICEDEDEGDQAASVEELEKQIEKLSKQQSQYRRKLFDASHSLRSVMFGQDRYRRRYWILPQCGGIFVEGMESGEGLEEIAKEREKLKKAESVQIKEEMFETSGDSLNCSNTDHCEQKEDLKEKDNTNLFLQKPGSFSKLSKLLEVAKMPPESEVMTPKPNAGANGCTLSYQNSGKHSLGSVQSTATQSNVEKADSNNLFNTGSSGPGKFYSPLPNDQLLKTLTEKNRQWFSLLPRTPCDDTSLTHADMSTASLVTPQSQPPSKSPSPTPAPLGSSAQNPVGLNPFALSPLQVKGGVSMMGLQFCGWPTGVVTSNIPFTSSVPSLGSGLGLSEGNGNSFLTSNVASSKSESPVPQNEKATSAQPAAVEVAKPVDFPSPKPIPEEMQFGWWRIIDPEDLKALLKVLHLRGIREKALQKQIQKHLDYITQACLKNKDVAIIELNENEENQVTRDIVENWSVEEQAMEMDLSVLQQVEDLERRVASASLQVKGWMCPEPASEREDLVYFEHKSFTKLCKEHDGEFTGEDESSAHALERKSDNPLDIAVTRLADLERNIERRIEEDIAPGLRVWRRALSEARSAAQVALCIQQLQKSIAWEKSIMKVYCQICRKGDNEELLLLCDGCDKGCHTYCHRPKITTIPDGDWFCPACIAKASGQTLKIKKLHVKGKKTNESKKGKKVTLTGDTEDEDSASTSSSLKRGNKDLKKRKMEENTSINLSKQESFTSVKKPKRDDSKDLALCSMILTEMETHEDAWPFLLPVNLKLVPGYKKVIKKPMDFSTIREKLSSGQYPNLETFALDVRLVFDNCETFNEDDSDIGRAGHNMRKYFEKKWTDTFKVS

Compound	activity change, negative = inhibition	Potency
Cc1ccc2c(CN3CCN(C(=O)c4ccc(F)cc4)CC3)cc(=O)oc2c1	inactive: -5.55%	–
COc1ccc(-n2c(SCC(=O)N/N=C/c3ccccc3OCC(=O)O)nc3ccccc3c2=O)cc1	–	inconclusive: 79.4 µM [inhibitor, single point]
Cn1c(=O)n(C)c2cc(NS(=O)(=O)c3ccc(F)cc3)ccc21	–	inconclusive: 89.1 µM [inhibitor, single point] and inconclusive: 79.4 µM [inhibitor, partial curve]
O=C(NCCc1ccc(Cl)cc1)C1CCN(S(=O)(=O)c2cccc3nonc23)CC1	–	inconclusive: 89.1 µM [inhibitor, single point]
COc1cccc(C(=O)Nc2ccc3nc(SCC(=O)N4CCOCC4)sc3c2)c1	inactive: -10.3%	–
COc1ccc(C2CC(=O)C3=C(C2)NC(C)=C(C#N)C3c2ccc(N(C)C)cc2)cc1 (centres undefined)	–	inconclusive: 22.4 µM [inhibitor, full curve]
Cc1ccc(NC(CC(=O)c2ccccc2)c2ccc(F)cc2)cc1 (centres undefined)	–	inconclusive: 35.5 µM [inhibitor, full curve]
CCOc1ccc(NC(=S)N2CCN(S(=O)(=O)c3ccc(OC)cc3)CC2)cc1	–	inconclusive: 79.4 µM [inhibitor, single point]
N=C1C(c2ccccc2)=C(O)CN1c1cccc(S(=O)(=O)NCc2ccco2)c1	inactive: -17%	–
O=C(Cc1cccs1)NC1CC(=O)N(c2cccc(F)c2)C1 (centres undefined)	inactive: -0.471%	–
CCOc1ccccc1NC(=O)c1cc(=O)c2ccc(C)cc2o1	inactive: -16.4%	–
N=C1SC(CC(=O)Nc2ccc([N+](=O)[O-])cc2)C(=O)N1c1ccccc1 (centres undefined)	inactive: -18.5%	–
CCSc1nc(-c2ccccc2OC)nc2c1Cc1c(CO)cnc(C)c1O2	inactive: -10.9%	–
Cn1cc([N+](=O)[O-])c(C(=O)Nc2cc(Oc3ccccc3)cc([N+](=O)[O-])c2)n1	–	inconclusive: 89.1 µM [inhibitor, single point]
CN(C)c1ccc(C(=O)n2nnc3ccccc32)cc1	inactive: 7.37%	–
Cc1ccccc1CS(=O)(=O)c1nnc([C@H](CC(C)C)NC(=O)OC(C)(C)C)o1	inactive: 4.58%	–
CC(=O)c1ccc(OCC(=O)N2CCN(S(=O)(=O)c3ccc(Br)s3)CC2)cc1	inactive: 4.52%	–
CC(C)c1ccccc1NC(=O)COC(=O)CCN1C(=O)/C(=C\C=C\c2ccccc2)SC1=S	–	inconclusive: 8.91 µM [inhibitor, full curve, poor fit]
COc1ccccc1C(=O)NC(CCSC)C(=O)NC1CCCCCC1 (centres undefined)	–	inconclusive: 79.4 µM [inhibitor, single point]
CCOC(=O)c1cc(S(=O)(=O)Nc2ccc(C)cc2Cl)[nH]n1	–	active: 79.4 µM
Cc1nc(SC2CC(=O)N(c3ccccc3)C2=O)n[nH]1 (centres undefined)	–	inconclusive: 79.4 µM [inhibitor, single point]
CCOC(=O)C1C(=O)OC(C)(C)C1C(CC)C(=O)c1ccccc1 (centres undefined)	–	inconclusive: 89.1 µM [inhibitor, single point]
Cn1c(CCN2CCN(c3ccccn3)CC2)nc2cc(NC(=O)COc3ccccc3)ccc21	–	inconclusive: 56.2 µM [inhibitor, partial curve]
N/C(=N\OC(=O)CCCc1ccccc1)c1ccccn1	–	inconclusive: 100 µM [inhibitor, single point]
COc1ccc(OCCn2cnc(Cl)c2Cl)cc1	inactive: -34.8%	–

Compound	activity change, negative = inhibition	Potency
CC(=O)Nc1ccc(S(=O)(=O)Nc2cccc(-c3ccc4nncn4n3)c2)cc1	–	inconclusive: 89.1 µM [inhibitor, single point]
COc1ccc(/C=C2/C(=O)N(c3ccccc3)N=C2C)c(OC)c1	–	active: 11.2 µM
CC1(C)N=c2ccc([N+](=O)[O-])c(N)c2=[N+]1[O-]	–	inconclusive: 50.1 µM [inhibitor, partial curve]
Cc1ccc(Cl)cc1-n1c(=O)cc(N2CCN(c3ccc(F)cc3)CC2)[nH]c1=O	inactive: -0.287%	–
CCn1cnc2sc(C(=O)N(Cc3ccc(N(C)C)cc3)Cc3ccco3)c(C)c2c1=O	–	active: 44.7 µM
CC(C)(C)NC(=O)CSc1nnc(-c2ccncc2)o1	inactive: 3.34%	–
COC(=O)CSc1nc(-c2ccccc2)cc(-c2ccco2)c1C#N	–	active: 70.8 µM
O=C(c1ccccc1)c1ccc(OCC(O)CNCc2ccc(Cl)cc2)cc1 (centres undefined)	–	active: 56.2 µM
COc1cc(/C=C/c2nc(C#N)c(N3CCCCCC3)o2)cc(OC)c1OC	–	inconclusive: 39.8 µM [inhibitor, partial curve]
COc1ccc(-c2cc(C(=O)Nc3c(C)nn(Cc4ccc(Cl)cc4)c3C)no2)cc1	–	inconclusive: 25.1 µM [inhibitor, full curve, poor fit]
O=C(Nc1cc(-c2nc3ccccc3s2)ccc1Cl)c1cc2ccccc2o1	inactive: 31.9%	–
CCCNC(=O)/C=C/c1ccc(C(C)C)cc1	inactive: 7.96%	–
Cc1c(CCC(=O)O)c(=O)oc2cc(OCc3ccccc3Br)ccc12	–	inconclusive: 89.1 µM [inhibitor, single point]
COC(=O)c1ccc(NC(=O)CCN2C(=O)NC(C)(C)C2=O)cc1	inactive: 12.4%	–
CCOc1cc(/C=C2/SC(=S)N(CC3CCCO3)C2=O)ccc1O (centres undefined)	inactive: -13.8%	–
Cc1cccn2c(=O)cc(CSc3nnc(NC(=O)COc4ccccc4)s3)nc12	–	active: 28.2 µM
CCN(C(=O)CSc1nnc2c3ccccc3n(CC)c2n1)C1CCS(=O)(=O)C1 (centres undefined)	inactive: -35.9%	–
COC(=O)c1cc2sccc2n1CC(=O)Nc1ccc(OC)c(OC)c1	inactive: -6.62%	–
CCn1cc(S(=O)(=O)c2ccc(C)cc2)c(=O)c2cc(OC)ccc21	inactive: -4.63%	–
CCOC(=O)CSC1=C(C#N)C(=O)NC(c2ccc(OC)cc2)S1 (centres undefined)	–	active: 50.1 µM
CC1CC(OCC(O)CN2CCN(Cc3ccccc3)CC2)CC(C)(C)C1 (centres undefined)	–	inconclusive: 79.4 µM [inhibitor, single point]
Cc1cc(C)n(-c2cc(N3CCN(C(=O)c4cccc(Br)c4)CC3)ccc2[N+](=O)[O-])n1	–	inconclusive: 89.1 µM [inhibitor, single point]
COc1ccc(-c2c(C)nn3c(C(F)(F)F)cc(-c4ccccc4)nc23)cc1OC	–	inconclusive: 2.82 µM [inhibitor, full curve, poor fit]
Cc1nnc2sc(SCC(=O)Nc3cccc(Cl)c3)nn2c1=O	–	active: 39.8 µM
COC(=O)CC1C(=O)NCCN1C(=O)c1cc(OC)c(OC)cc1OC (centres undefined)	inactive: -6.3%	–

Compound	activity change, negative = inhibition	Potency
CCN(c1ccccc1C)S(=O)(=O)c1nnc(NC(=O)c2ccco2)s1	–	inconclusive: 89.1 µM [inhibitor, single point]
COc1ccccc1OCC(=O)N1CCC(c2nc3ccccc3o2)CC1	inactive: -4.13%	–
CCCCCCNC(=O)N[C@H](C(=O)NCCC[C@H]1CN2C(=NC[C@H]2C)N1CCC(c1ccccc1)c1ccccc1)C(C)O (some centres undefined)	–	active: 20 µM
CCCOc1ccc(C2=CSC3=NCCN23)cc1Cl	–	inconclusive: 70.8 µM [inhibitor, single point]
O=C(O)c1cnc2[nH]c3ccccc3n2c1=O	inactive: -35%	–
COCCCNCCCCOc1ccccc1-c1ccccc1	–	active: 70.8 µM
Cc1ccc(NC(=O)Nc2cn(CC(C)C)c(=O)c3ccccc23)cc1N(C)C	–	inconclusive: 35.5 µM [inhibitor, single point]
CCC1=NN2C(=N)/C(=C\c3cccn3-c3ccc(C)cc3C)C(=O)N=C2S1	–	inconclusive: 44.7 µM [inhibitor, partial curve]
CCOC(=O)c1cc(S(=O)(=O)N2CCN(c3cccc(C)c3C)CC2)[nH]n1	–	inconclusive: 50.1 µM [inhibitor, partial curve, poor fit]
NC(=O)CC(NC(=O)c1cccc(Br)c1)c1ccc(NC2CCCCCCC2)c([N+](=O)[O-])c1 (centres undefined)	–	inconclusive: 39.8 µM [inhibitor, full curve]
Cc1ccc(S(=O)(=O)C(C)C(=O)NCCS(=O)(=O)c2ccc(Cl)cc2)cc1 (centres undefined)	inactive: -32.1%	–
COc1ccc(/C=C/C(=O)c2ccc3c4c(cccc24)CC3)cc1OC	–	inconclusive: 39.8 µM [inhibitor, partial curve]
N=c1c2c(-c3ccccc3)c(-c3ccccc3)n(Cc3ccccc3)c2ncn1CCCn1ccnc1	–	active: 50.1 µM
Cc1ccccc1OCCCCn1c(CCNC(=O)C(C)(C)C)nc2ccccc21	–	inconclusive: 89.1 µM [inhibitor, single point]
COc1ccc(OC)c(CNC(=O)c2ccc(NC(=O)c3nsc4ccccc34)cc2)c1	inactive: -3.5%	–
Cc1cc(NC(=O)CSc2nc3ccccc3c(=O)n2CCCC(=O)NCc2ccco2)n[nH]1	–	inconclusive: 89.1 µM [inhibitor, single point]
Clc1ccc(-n2ncc3c(NCCCn4ccnc4)ncnc32)cc1	inactive: -33.4%	–
CC1(C)Cc2c(C#N)c(N3CCN(C(=O)c4ccccc4)CC3)nc(-c3ccco3)c2CS1	–	active: 50.1 µM
Cc1ccc(S(=O)(=O)N2CCCC2C(=O)OCc2ccco2)cc1 (centres undefined)	–	active: 50.1 µM
CCOC(=O)c1c(S(=O)(=O)N2CCC(C(=O)N3CCN(c4ccccc4F)CC3)CC2)c(C)n(C)c1C	–	inconclusive: 79.4 µM [inhibitor, single point]
CN1CCN(NC(=O)c2ccc(Cl)s2)CC1	inactive: -11.8%	–
Cc1ccc(C(=O)NCc2ccco2)cc1S(=O)(=O)N1CCCCC1	–	inconclusive: 79.4 µM [inhibitor, single point]
Cc1ccc(C)c(CN2CCCN(CC(=O)Nc3ccc(C)c(C)c3)S2(=O)=O)c1	inactive: -16.2%	–
O=C(O)c1cccc(NC(=S)NC(=O)c2ccc(-c3ccc(Cl)cc3)o2)c1	–	inconclusive: 79.4 µM [inhibitor, partial curve]
